In ChEMBL document CHEMBL1201862, “PubChem BioAssay data set” (2004):

Each compound was assayed on NCI-H322M (assay: growth of human tumour cells (NCI), 48 h).
For C=C1C(=O)OCC2C(C(=O)O)=CC3C(C)C(C)=CC123 (stereo not drawn), the GI50 was inactive: 10.7 µM. CCOC(=O)C12CCCC1(O)N(NC(=O)c1ccccc1)C(C)=C2C(=O)OC (stereo not drawn) was tested, and the GI50 was inactive: > 100 µM. In the case of C#CCSc1cnc2ccccc2c1Sc1c[nH]c2ccccc2c1=O, the GI50 is reported as inactive: 19.9 µM. With S=C(S)N1CCN(c2ccc(Cl)c(Cl)c2)CC1 the GI50 was inactive: 32.2 µM. In the case of Oc1[nH]c(Nc2cc(Cl)cc(Cl)c2)nc2ncnc1-2, the GI50 is reported as inactive: > 75 µM. CC(=O)c1cc2c(s1)C(=O)c1ccsc1C2=O was tested, and the GI50 was inactive: 1.92 µM. COc1cc2c(c(OC)c1OC)-c1ccc(OC)c(=O)cc1C(NC(=O)c1ccc(N=[N+]=[N-])cc1)CC2 (stereo not drawn) was tested, and the GI50 was active: 0.0531 µM. For CC(C)(C)c1cc2nc(c1)C(C(F)(F)F)(C(F)(F)F)OB(Br)OC2(C(F)(F)F)C(F)(F)F, the GI50 was active: 0.127 µM. For Cc1nnc2c3nnc(C)n3c3ccccc3n12, the GI50 was inactive: > 100 µM. CNS(=O)(=O)c1ccc2c(c1)/C(=C1/Nc3ccccc3C1=O)C(=O)N2 was tested, and the GI50 was inactive: > 100 µM. With CSc1nc(-c2cc3c(c(SC)n2)CCC3)cc2c1CCC2 the GI50 was inactive: > 100 µM. With COC(=O)[C@@H]1O[C@]12[C@@H](CO[Si](C)(C)C(C)(C)C)O[C@@H](n1cc(C)c(=O)[nH]c1=O)[C@@H]2O[Si](C)(C)C(C)(C)C the GI50 was inactive: 19.2 µM. Nc1ccc(S(=O)(=O)Nc2nc3ccccc3nc2Nc2ccc(S(N)(=O)=O)cc2)cc1 was tested, and the GI50 was inactive: 57.7 µM. With Sc1nnc(NNc2ccccc2)n1Nc1ccccc1 the GI50 was inactive: > 86.1 µM. CC(C)c1ccc(/C(C(=O)O)=C(\O)C(=O)O)cc1 was tested, and the GI50 was inactive: > 100 µM. With CC(=O)c1ccc2c(c1)CC1(C2)Cc2cc3c(cc2C1)C(=O)CC3 (stereo not drawn) the GI50 was active: 0.92 µM. In the case of COC(=O)CNC(=O)CCC(C)[C@H]1CCC2C3C(C[C@H](OC(C)=O)[C@@]21C)[C@@]1(C)CCC2(C[C@H]1C[C@H]3OC(C)=O)OOC1(CC[C@]3(C)C4C[C@H](OC(C)=O)[C@@]5(C)C(CC[C@@H]5C(C)CCC(=O)NCC(=O)OC)C4[C@H](OC(C)=O)C[C@@H]3C1)OO2 (stereo partly drawn), the GI50 is reported as inactive: 14.1 µM. CCOC(=O)C(C(N)=O)C1=Nc2cc([N+](=O)[O-])ccc2N/C1=C\C(=O)c1ccccc1 (stereo not drawn) was tested, and the GI50 was inactive: 22.2 µM. With N=C(c1ccc2ccccc2c1)c1ccccc1Cc1ccccc1 the GI50 was inactive: 23.9 µM. In the case of O=C1OCC2OC(=O)c3cc(O)c(O)c(O)c3-c3c(O)c(O)c(O)c4c3C(=O)OC(C2OC(=O)c2cc(O)c(O)c(O)c2-c2c1cc(O)c(O)c2O)C1OC(=O)c2c-4c(O)c(O)c(O)c2[C@@H]1C(O)C(O)C(O)C(O)CO (stereo partly drawn), the GI50 is reported as inactive: 13.6 µM. C#CC(O)/C=C/C(O)CCCC(O)CC#CC(O)C#CC(O)CCCC(O)/C=C/CCCC(=O)CCCCCCCCCCCCCCCC(O)C(O)C#CC(=O)O (stereo not drawn) was tested, and the GI50 was inactive: > 50 µM. With CC1=NN(c2ccccc2)C(=O)C1/N=N/c1ccc([As](=O)(O)O)c(O)c1 (stereo not drawn) the GI50 was inactive: > 100 µM. For CSc1ccc2c(cc1=O)[C@@H](NC(=O)c1ccc(F)cc1)CCc1cc(O)c(O)c(O)c1-2, the GI50 was inactive: > 100 µM. With COc1ccc(CC/N=C2\CCC(C(=O)NCCc3ccc(OC)c(OC)c3)N2)cc1OC (stereo not drawn) the GI50 was inactive: > 100 µM. C=C(CO)CC(/C=C(\C)CC/C=C(\C)CCl)OC(C)=O (stereo not drawn) was tested, and the GI50 was inactive: > 100 µM. With COc1ccc(/C=N/Nc2nc(=S)[nH]c3[nH]ncc23)cc1 the GI50 was inactive: 36.6 µM. In the case of COc1nc(SC)nc2c1cnn2C1OC(C(O)CO)C(OC)C1O (stereo not drawn), the GI50 is reported as inactive: > 100 µM. For O=C1CSC(c2cccc(Cl)c2)N1c1ccc(-c2ccc(-n3c(-c4ccccc4)nc4ccccc4c3=O)cc2)cc1 (stereo not drawn), the GI50 was inactive: > 100 µM. For CC1(C)C(=NNC(=O)C[N+](C)(C)C)C(C)(C)C1=NNC(=O)C[N+](C)(C)C, the GI50 was inactive: > 100 µM. With Cc1ccc(-c2cc(N)n(-c3nc4c(c(=O)n(C)c(=O)n4C)n3C)n2)cc1 the GI50 was inactive: > 100 µM. With O/N=C1/CCC/C1=C\c1ccccc1 the GI50 was inactive: > 100 µM. In the case of CCCC(=O)Nc1cc([N+](=O)[O-])c([N+](=O)[O-])cc1OC, the GI50 is reported as inactive: 13 µM. In the case of COc1cc2oc(=O)cc(C)c2cc1[N+](=O)[O-], the GI50 is reported as inactive: > 100 µM. For COC(=O)C(=O)C(C(=O)C(=O)Nc1ccc(C)cc1C)c1nc2ccc(Cl)cc2nc1O (stereo not drawn), the GI50 was inactive: > 100 µM. With N#CCN1CCCN(CC#N)CCN(CC#N)CCCN(CC#N)CC1 the GI50 was inactive: > 100 µM. In the case of O=S(=O)(O)c1c(/N=N/c2c(O)ccc3ccccc23)ccc2ccccc12, the GI50 is reported as inactive: > 100 µM. For CCCCCC/C=C\CCCCCCCCCC1=C(CN2CCN(C)CC2)C(=O)C=C(OC)C1=O, the GI50 was inactive: 14.5 µM. C#CCNC(CS)C(=O)O (stereo not drawn) was tested, and the GI50 was inactive: > 100 µM. For COc1cc2c(OC)c(c1)CCCC1=CC(=O)C=C(CCC2)C1=O, the GI50 was inactive: 44.4 µM. COc1ccc(N2N=NN(C(C)C)/C2=C(/Cl)c2nnnn2-c2ccc(OC)cc2)cc1 was tested, and the GI50 was inactive: 16.4 µM. In the case of Nc1ccc(C(=O)NN2C(=O)C(Cl)C2c2cc(Br)cc(Br)c2O)cc1 (stereo not drawn), the GI50 is reported as inactive: 5.27 µM. In the case of CCO/C(Cc1ccc(Cl)cc1)=N/NC(N)=S, the GI50 is reported as inactive: > 100 µM. In the case of C=CCOC(=O)C1CCC(=O)N1C(=O)C(Cl)Cl (stereo not drawn), the GI50 is reported as inactive: > 100 µM. For CN(C)Cc1cc(C=O)cc(CN(C)C)c1O, the GI50 was inactive: > 100 µM. For Cn1c(=O)c2c(no[n+]2[O-])c2ccccc21, the GI50 was inactive: 24.7 µM. Cc1cc(Nc2ccc(S(=O)(=O)O)cc2)c2ccccc2n1 was tested, and the GI50 was inactive: > 100 µM. O=c1[nH]c(=O)c2c([nH]1)[nH]c1ccc(Br)cc12 was tested, and the GI50 was inactive: 54.7 µM. In the case of CC1(C)O[C@@H](CC/C=C/CO)[C@H](CC/C=C/CO)O1, the GI50 is reported as inactive: > 100 µM. With CCOC(=O)/C(C#N)=C/Nc1c(C)n(C)n(-c2ccccc2)c1=O the GI50 was inactive: > 100 µM. For Cn1c(=O)oc2cc(C(O)CN3CCN(Cc4ccc5c(c4)OCO5)CC3)ccc21 (stereo not drawn), the GI50 was inactive: > 100 µM. For O=C(O)C(CO)NC(=O)n1c2ccccc2c2ccccc21 (stereo not drawn), the GI50 was inactive: > 100 µM. In the case of O=C(CSCC(=O)N/N=C/c1ccncc1)N/N=C/c1ccncc1, the GI50 is reported as inactive: > 100 µM. O=C(/C=C/c1ccc(OCCSCCCCCCCCCCSCCOc2ccc(/C=C/C(=O)c3ccc(Cl)cc3)cc2)cc1)c1ccc(Cl)cc1 was tested, and the GI50 was inactive: > 100 µM. With COC(=O)[C@@H]1C[C@H]([Se]c2ccccc2)CN1S(=O)(=O)c1ccc(C)cc1 the GI50 was inactive: > 100 µM. With CC(=O)c1ccc2c(c1)c1c(C)c3c[n+](C)ccc3c(C)c1n2C the GI50 was inactive: 6.75 µM. With CC[C@@]1(OC(=O)CN(C)C)C(=O)OCc2c1cc1n(c2=O)Cc2cc3ccccc3nc2-1 the GI50 was active: 0.252 µM. For COc1ccc(C(C)NNC(=O)c2cc[n+]([BH2-]C#N)cc2)cc1F (stereo not drawn), the GI50 was inactive: > 100 µM. For Cn1c(=O)c2c(nc3n2CC(=O)N3CCCCl)n(C)c1=O, the GI50 was inactive: > 100 µM. In the case of CNC(C)Cc1ccccc1O (stereo not drawn), the GI50 is reported as inactive: > 100 µM. With CC1CC(=O)Nc2nc3ccccc3n21 (stereo not drawn) the GI50 was inactive: > 100 µM. With N#C/N=C(/N)c1sc2nc3c(c(-c4ccc(Br)cc4)c2c1N)CCCC3 the GI50 was inactive: 20.6 µM. In the case of CN1N=C(c2ccccc2)C(C(c2ccccc2[N+](=O)[O-])C2C(=O)N(C)N=C2c2ccccc2)C1=O (stereo not drawn), the GI50 is reported as inactive: > 100 µM. In the case of CCOC(=O)Cn1c2ccc(Br)cc2c2nc3ccccc3nc21, the GI50 is reported as inactive: > 100 µM.

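48-hour exposure; five concentrations; linearly interpolated endpoints. At the GI50, growth is halved.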 Calls of active or inactive are those of the source. Cut-off read from the data, not from the text of the source: active = GI50 up to about 1.1 µM and inactive = higher.
